According to article PMC5515408:
Some of the results follow. At the low end of the ranking, values are background and their order means little.

Tested on: MYC (p64) + MAX (p21), in MYC:MAX
Assay: protein-binding microarray (anti-MAX antibody)
Settings: PBM: 15 mM Tris-HCl pH 7.5, 100 mM KCl, 0.075% NP40, 7.5 mM beta-mercaptoethanol, 375 ng/ul BSA, 8 ng/ul poly(dA-dT):(dA-dT), 550 ng complex, 60 min, room …; high values mean tight binding; double strand, one strand shown; sequences stand for … in CCGGC…TTAATAGCTAAGATTACTATATCGACG

Row | Sequence | binding signal (log2 normalized fluorescence)
1 | TTTCACGAGGTA | 0.531
2 | TGAAGAGGGGTA | 0.288
3 | TGAATGTAAGTA | 0.187
4 | TGAGTCTACGTA | -0.0769
5 | TGATCGTATGTA | 0.112
6 | TGACTGCTGGTA | 0.071
7 | TGAGTTGCCGTA | -0.0616
8 | TGACACACCGTA | 0.434
9 | TGAGCAAGAGTA | -0.0325
10 | TGATACAGCGTA | -0.0975
11 | TGACACATAGTA | 0.285
12 | TCCCACGTGGTA | 0.763
13 | TGAGAATGCGTA | 0.164
14 | TGAGAGCCCGTA | 0.0836
15 | TGAGACGTGCTA | 0.456
16 | TGATTTGCGGTA | -0.103
17 | CGACACGTGGAA | 0.832
18 | TGAAAAAATGTA | -0.0706
19 | TGAAGTGGTGTA | 0.143
20 | TGAGCGGTCGTA | -0.0551
21 | TGAATTAATGTA | -0.0278
22 | TGAAAACAAGTA | -0.0491

Row | Sequence | binding signal (log2 normalized fluorescence)
23 | TGAAATTCGGTA | 0.155
24 | TGACACTACGTA | 0.203
25 | TGAACCATAGTA | 0.262
26 | TGACATTTCGTA | 0.178
27 | TGATGTGTTGTA | 0.277
28 | TGATTCCACGTA | 0.228
29 | TGAGCCGACGTA | -0.0379
30 | TGAGATTCAGTA | -0.0776
31 | TGAACTTATGTA | 0.216
32 | TGAGTTTAAGTA | -0.127
33 | TGATGCGTTGTA | 0.287
34 | TGATAAAGTGTA | 0.0229
35 | TGAGGTATGGTA | 0.28
36 | TGAGGTCGAGTA | -0.192
37 | TGATCCCCTGTA | 0.00567
38 | TGAACCCGGGTA | 0.0812
39 | TGATCATCAGTA | 0.103
40 | TGATCACCAGTA | 0.2
41 | TGACCGCCTGTA | 0.344
42 | TGATGCGGAGTA | 0.0566
43 | TGACTACGTGTA | 0.397
44 | TGAACTGATGTA | 0.109

Row | Sequence | binding signal (log2 normalized fluorescence)
45 | TGACGTGCTGTA | 0.416
46 | TGACTTTTTGTA | 0.0526
47 | TGAATCTTAGTA | -0.0392
48 | TGACCCCAGGTA | 0.0661
49 | CTCCACGTGGTA | 0.737
50 | CTATTTGGACCC | -0.271
51 | TGAGGGCCGGTA | -0.0816
52 | TGACCGATTGTA | 0.114
53 | TGAGCAGACGTA | 0.132
54 | TGACATTCAGTA | 0.215
55 | TGACGGGCGGTA | 0.0481
56 | TGAATAGATGTA | -0.0846
57 | TGATCGAACGTA | -0.0311
58 | TTTCACGTAGTA | 0.331
59 | TGAGTCGGGGTA | 0.126
60 | TGACTCCTTGTA | 0.166
61 | TGACACTGCGTA | 0.302
62 | TGACACGTGCTG | 0.743
63 | TGACTGTATGTA | 0.247
64 | TGAATTCACGTA | 0.137
65 | TGACGTTGTGTA | 0.16
66 | TGAACGCACGTA | 0.455

Row | Sequence | binding signal (log2 normalized fluorescence)
67 | TGAATCATGGTA | 0.266
68 | TGAATGGGAGTA | 0.171
69 | TGAGCGGGAGTA | -0.0733
70 | TGAGATCACGTA | 0.352
71 | TGAATCTTGGTA | -0.0321
72 | TGACACGAAGTA | 0.165
73 | TGACTTCGCGTA | 0.119
74 | CGACACATGGTT | 0.635
75 | TGCCCCGTGGTA | 0.501
76 | TGAGTCTTAGTA | -0.124
77 | TGACCATATGTA | 0.433
78 | TCGCACGTGGAA | 0.67
79 | TGACGTAGTGTA | -0.0016
80 | TGATCGGTAGTA | -0.055
81 | TGACACGTTAAA | 0.508
82 | TGACGGGGAGTA | 0.207
83 | TGATAGTTCGTA | -0.254
84 | TGATCTTGTGTA | 0.116
85 | TTACACGTGCTA | 1.02
86 | TGAAATGTGGTA | 0.357
87 | TGAGGTCCAGTA | -0.0423
88 | TGACGATTCGTA | 0.0651
